The text below walks through data of paper PMC6212790.

The other results are listed elsewhere or left out. At the low end of the ranking the order means little.

The target of the assay is T1, GST-Rok (full length) (UniProt O34857).
T1 sequence: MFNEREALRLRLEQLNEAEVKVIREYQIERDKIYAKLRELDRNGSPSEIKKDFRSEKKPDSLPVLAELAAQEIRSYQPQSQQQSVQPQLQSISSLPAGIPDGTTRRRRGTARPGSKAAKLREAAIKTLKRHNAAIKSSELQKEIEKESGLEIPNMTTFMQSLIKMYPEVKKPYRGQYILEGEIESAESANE
Nature of the assay: protein binding microarray.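 Further: rank score from −0.5 (least bound) to 0.5 (best bound).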 The conditions noted are these: Rok is a gene silencer of Bacillus subtilis; high values mean tight binding; most listed sequences are background and not binding sites; double strand, one strand shown.
For the sequence CAGACTCG, the binding signal was -0.06 E-score.
The result for CGCGAGGC reads -0.245 E-score.
The sequence GCGTTGAA had a binding signal of -0.212 E-score.
The result for GAACGAGA reads -0.0634 E-score; that for GTAGTAGA, 0.33 E-score; that for CGTGCCGA, -0.261 E-score.
Sequence ACAAGGGG yielded a binding signal of -0.231 E-score.
The value for GCAGAGGA was -0.0443 E-score.
The value for GAGCAGTA was -0.0236 E-score; that for CGTCAATA was 0.12 E-score.
The value for ATAATATA was 0.453 E-score; that for AAGTCCGG was -0.245 E-score.
In the case of GAGACTGA, the binding signal came to 0.0243 E-score.
In turn, AGGACCCC registered a binding signal of -0.256 E-score.
CCCGGTGA came in with a binding signal of -0.283 E-score.
The value for ATAAAATG was 0.203 E-score.
With ACCATCGA, the binding signal was found to be 0.0749 E-score.
GCGCACGC came in with a binding signal of -0.158 E-score.
The result for AATGGGCG reads -0.262 E-score; that for CCAGACGC, -0.247 E-score.
The sequence CCATAAAC registered a binding signal of -0.00276 E-score.
Regarding CGACGCTC, the binding signal is -0.165 E-score.
In turn, AACCATGG displayed a binding signal of -0.0493 E-score.
The value for TCTGGAAA was 0.0895 E-score; that for AATGGCGA was -0.0409 E-score; that for ATGTCGAA was 0.195 E-score.
The value for CGGACCCA was -0.264 E-score; that for ACATCACG was -0.15 E-score.
Consider ACAAATAG, for which the binding signal turned out to be 0.317 E-score.
Regarding ACATGAAT, the binding signal is 0.214 E-score.
ACGTTAAC returned a binding signal of 0.02 E-score.
For CACCTGAG, the binding signal is -0.158 E-score.
For AACTTCTT, the binding signal is -0.00379 E-score.
The result for CACGTATC reads -0.00485 E-score; that for GAGATCAA, -0.104 E-score; that for AGTCGTCA, 0.00488 E-score.
The sequence AACTTGCC registered a binding signal of 0.13 E-score.
The result for GCTACGGA reads 0.149 E-score.
Sequence AGACCAGG registered a binding signal of -0.179 E-score.
The result for CTTGAGAA reads -0.0173 E-score; that for AGGTGAAA, -0.0291 E-score; that for AGTCTTAG, -8.19e-05 E-score.
Consider CAAATGTC, for which the binding signal is -0.136 E-score.
In the case of CCCAAAGC, the binding signal was -0.18 E-score.
The value for AACTGGTA was 0.325 E-score; that for AACCCATC was -0.0588 E-score.
TCGCCGCA displayed a binding signal of -0.0504 E-score.
With AACTCGTA, the binding signal is 0.171 E-score.
The result for TCGGGTCA reads -0.14 E-score; that for ATACGAAG, -0.0252 E-score; that for GATGGACC, -0.171 E-score.
As to CGTCTTAA, the binding signal is -0.0347 E-score.
The result for CAGTTTAC reads -0.0117 E-score; that for AATACTAC, 0.419 E-score; that for CAACAATC, 0.18 E-score.
On to AACAAATC, for which the binding signal is -0.0733 E-score.
The sequence AGGATCAT had a binding signal of -0.056 E-score.
The value for CCGACGGC was -0.271 E-score.
The result for AAAGGGCC reads -0.386 E-score.
For GCCTCTAA, the binding signal is -0.168 E-score.
The value for TACGGGCA was -0.212 E-score; that for AGGCATAA was 0.0499 E-score; that for GTAAGAAA was 0.327 E-score.
The value for AATGCGCT was 0.109 E-score; that for ATCTTAAG was 0.0411 E-score; that for CCTGTACA was 0.0121 E-score.
As to AGCATATG, the binding signal stood at 0.233 E-score.
In turn, GTGCTTCA came in with a binding signal of -0.109 E-score.
The result for AAATTAAC reads 0.305 E-score; that for CCAACGGG, -0.219 E-score; that for TAATAGTA, 0.401 E-score.
The sequence TCAAGTGA displayed a binding signal of -0.0359 E-score.
The result for ATTGCGCC reads -0.157 E-score; that for CATCGGAC, -0.0456 E-score; that for CCTTACTA, 0.145 E-score.
As to AAATACGA, the binding signal turned out to be 0.118 E-score.
The result for CATCGAGA reads -0.0077 E-score; that for AGCCGAAT, 0.0128 E-score.
The result for ACGAGCTC reads -0.355 E-score; that for ACACAATC, -0.0151 E-score.
The result for ATAGGCAT reads -0.14 E-score; that for CATGGGTA, 0.113 E-score.
As for AAGGTGGA, the binding signal was -0.167 E-score.
The result for AGACGATG reads -0.0471 E-score; that for ACGATCAA, -0.0817 E-score.
The result for TCCAGCCA reads 0.0502 E-score; that for GGGAAACA, 0.0326 E-score.
The value for CAGCTAAA was 0.0144 E-score; that for TCAAGCCA was -0.209 E-score; that for AGTTTCCA was 0.18 E-score.
For the sequence TACGGTGA, the binding signal stood at 0.0146 E-score.
Sequence GGTTGCGA gave a binding signal of -0.0742 E-score.
Turning to ACCCGCCA, the binding signal is -0.286 E-score.
AGACGTAC: the binding signal came to 0.113 E-score.
Turning to AGTCCACA, the binding signal is -0.0563 E-score.
The value for ATAACAAG was 0.129 E-score; that for CAATGGAG was -0.17 E-score; that for AGCCCGCT was -0.234 E-score.
With AACACGCC, the binding signal was -0.215 E-score.
Sequence ACGCGGAC yielded a binding signal of -0.204 E-score.
On to ATGCGCAG, for which the binding signal is -0.0163 E-score.
With AGTGACTG, the binding signal was -0.18 E-score.
For the sequence CTTTCGAC, the binding signal was -0.178 E-score.
The value for AAGTTATG was 0.294 E-score.
In turn, CGCTGGAA displayed a binding signal of -0.205 E-score.
As for ACCCTCAA, the binding signal is -0.259 E-score.
The value for GTAAAGAA was 0.0756 E-score; that for CGAGGAAG was -0.258 E-score.
The result for AAACCAGC reads 0.0208 E-score; that for CCGCAGAG, -0.152 E-score.
AACGGCTA came in with a binding signal of 0.0361 E-score.
The value for CATATAAC was 0.268 E-score; that for AGGAAATG was -0.0514 E-score; that for GCTCTGGA was -0.233 E-score.
The result for GACCCAAA reads -0.0617 E-score.
In turn, CCTCACCC showed a binding signal of -0.165 E-score.
The sequence AATGGCAG came in with a binding signal of 0.0409 E-score.
AGTATAGC gave a binding signal of -0.0248 E-score.
Take CACTATAG: the binding signal is 0.132 E-score.
AACTAAGG: the binding signal is 0.149 E-score.
The result for AGACGTGG reads -0.238 E-score.
The value for AGGAAGAT was 0.126 E-score; that for ATAAATTC was 0.221 E-score; that for AATGACTA was 0.122 E-score.
The value for GCCCGAAC was 0.00454 E-score.
For GCCCGACC, the binding signal was -0.349 E-score.
CAAGGTGA registered a binding signal of -0.15 E-score.
The result for AACCAATA reads 0.213 E-score; that for AGACGTAA, -0.0573 E-score.
The sequence GGCCGATA came in with a binding signal of 0.0786 E-score.
In turn, CAATTGGG came in with a binding signal of -0.169 E-score.
The result for GCCAAACC reads -0.183 E-score.
The result for GCGCCAAA reads -0.0786 E-score; that for GCTACAAA, 0.159 E-score; that for CCTTGAGA, -0.16 E-score.
As to GCCTTAGC, the binding signal was -0.0735 E-score.
In turn, ACTGCGGA displayed a binding signal of -0.234 E-score.
The result for TCCGGCGA reads -0.169 E-score; that for CTGGGCAA, -0.124 E-score; that for GGCTGCAA, -0.403 E-score.
The result for CGACTCCG reads -0.293 E-score; that for ACCCTCGT, -0.215 E-score; that for TAGGTACA, 0.207 E-score.
CGAGCAAG registered a binding signal of -0.16 E-score.
The sequence ACTCAGAG yielded a binding signal of 0.0293 E-score.
The value for AGGGACCC was -0.204 E-score; that for CTGAAGGA was -0.255 E-score.
The value for CGACAGCG was -0.036 E-score; that for TAGTTGGA was -0.00389 E-score; that for CGAGGGTA was -0.0923 E-score.
The result for CCAGCTAG reads 0.0501 E-score; that for AACAGTGG, -0.0354 E-score; that for CCTAGGCA, -0.107 E-score.
CGAAAGTC returned a binding signal of -0.0924 E-score.
Consider CGTACATA, for which the binding signal is 0.243 E-score.
The value for ATTGCTGC was 0.156 E-score.
CAGACTTC yielded a binding signal of 0.00972 E-score.
In the case of AATTGGCG, the binding signal came out at 0.0811 E-score.
In turn, GTATAAAC came in with a binding signal of 0.16 E-score.
As for ACTCCGAG, the binding signal was -0.131 E-score.
Regarding GACGCGAC, the binding signal is -0.213 E-score.
The sequence AGTGTAGC registered a binding signal of 0.0592 E-score.
For GCGGCTTA, the binding signal is -0.246 E-score.
For AGTGTTGC, the binding signal was -0.0159 E-score.
For ACTACGCC, the binding signal was -0.0446 E-score.
The value for CAAATTAC was 0.356 E-score.
As to AGTGTCCG, the binding signal is 0.013 E-score.
The value for CTCCAGAA was -0.00511 E-score; that for ACGACACT was -0.0609 E-score; that for ACATAATG was 0.27 E-score.
In turn, CAACCGTC showed a binding signal of -0.132 E-score.
The result for TCGTCCAA reads -0.131 E-score.
